In publication PMC4336329 (PLoS ONE, 2015):
Among all 310,000 compounds or so, about 14,000 (4.5%) showed an effect of 50% or more. Effects have a minus sign here. The list shows a part of the results.

The compounds below were run against human ether-à-go-go-related gene (hERG) potassium channel (human, UniProt Q12809) (assay: primary screen, population patch clamp on CHO cells stably expressing hERG).
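Further: peak tail current of the secondary pulse compared with the same well before compound.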

Chain of human ether-à-go-go-related gene (hERG) potassium channel (Q12809 whole entry, looked up): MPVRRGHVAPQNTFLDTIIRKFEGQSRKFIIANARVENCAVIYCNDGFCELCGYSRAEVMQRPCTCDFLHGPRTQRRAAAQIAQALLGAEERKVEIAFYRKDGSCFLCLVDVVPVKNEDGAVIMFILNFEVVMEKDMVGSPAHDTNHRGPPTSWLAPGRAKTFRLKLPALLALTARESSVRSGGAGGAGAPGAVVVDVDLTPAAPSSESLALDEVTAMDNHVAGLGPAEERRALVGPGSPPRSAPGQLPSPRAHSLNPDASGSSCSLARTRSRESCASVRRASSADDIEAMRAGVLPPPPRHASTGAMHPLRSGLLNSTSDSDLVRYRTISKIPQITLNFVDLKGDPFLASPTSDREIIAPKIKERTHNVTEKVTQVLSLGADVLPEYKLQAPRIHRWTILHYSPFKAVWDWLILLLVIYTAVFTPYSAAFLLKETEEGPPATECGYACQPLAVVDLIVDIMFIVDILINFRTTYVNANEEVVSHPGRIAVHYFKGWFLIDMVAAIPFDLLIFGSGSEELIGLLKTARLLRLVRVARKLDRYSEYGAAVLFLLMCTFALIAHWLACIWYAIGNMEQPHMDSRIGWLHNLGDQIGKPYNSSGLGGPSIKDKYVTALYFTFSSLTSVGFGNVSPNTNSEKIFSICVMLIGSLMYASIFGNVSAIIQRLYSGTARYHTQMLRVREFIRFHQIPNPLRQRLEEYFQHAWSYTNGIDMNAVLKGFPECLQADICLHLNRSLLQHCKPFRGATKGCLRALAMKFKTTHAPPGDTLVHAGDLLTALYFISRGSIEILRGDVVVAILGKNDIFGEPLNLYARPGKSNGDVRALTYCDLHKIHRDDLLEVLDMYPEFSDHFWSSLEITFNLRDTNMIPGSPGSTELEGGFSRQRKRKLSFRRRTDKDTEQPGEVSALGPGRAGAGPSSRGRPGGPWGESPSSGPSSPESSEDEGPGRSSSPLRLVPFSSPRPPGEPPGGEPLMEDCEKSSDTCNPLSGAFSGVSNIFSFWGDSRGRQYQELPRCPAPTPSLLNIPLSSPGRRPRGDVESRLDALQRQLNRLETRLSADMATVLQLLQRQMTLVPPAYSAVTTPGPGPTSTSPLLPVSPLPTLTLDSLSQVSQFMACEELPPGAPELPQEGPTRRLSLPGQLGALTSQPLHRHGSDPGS

Point of comparison: O=C(Cn1cccc1C(=O)c1ccccc1)NCc1cccnc1, “hERG current change (%, negative = inhibition) at 10uM” value -3.6%. Against it:
- CC(C)(C)n1nc2c(c1NC(=O)c1cc3ccccc3o1)CS(=O)(=O)C2 — lower, -16.8%
- Cn1c(CNC(=O)CNC(=O)Cc2ccc(Cl)cc2)cc(=O)n(C)c1=O — higher, 18.9%
- CN(C(=O)CSc1nnc(-c2ccc3c(c2)OCO3)o1)C1CCS(=O)(=O)C1 (centres unmarked) — lower, -23.7%
- COCCN(C(=O)CNC(=O)c1ccco1)C(C(=O)NC1CCCCC1)c1cccnc1 (centres unmarked) — higher, 20.1%
- COc1ccc(NC(=O)c2ccc[n+]([O-])c2)cc1 — higher, 10.5%
- Cc1ccc2c(c1)C(=O)C(=O)N2CC(=O)Nc1ccc(N2CCOCC2)cc1 — lower, -6.96%
- Cc1cc(Cl)ccc1C(=O)C1CCCN(C(=O)c2cncs2)C1 (centres unmarked) — lower, -25.8%
- CC(=O)Nc1ccc(S(=O)(=O)NCCN2CCNC2=O)cc1Cl — higher, 12.4%
- Nc1c(Cl)cc(-c2[nH]c3cc(C(=O)NCCO)ccc3c(=O)c2O)cc1Cl — higher, 12.1%
- O=C(NNC(=O)c1cc2cc3ccccc3nc2s1)c1ccc(F)cc1 — higher, 2.97%
- CN(C)C(=O)c1cc(C(=O)c2ccc(Cl)cc2Cl)c[nH]1 — higher, 0.176%
- O=C1CC(c2nc3ccccc3[nH]2)CN1Cc1ccccc1 (centres unmarked) — higher, 5.44%
- CCN(CC)S(=O)(=O)c1ccc2c(c1)nc(CCC(=O)Nc1ccc3c(c1)OCO3)n2CC — higher, -0.447%
- CC(=O)Nc1ccc(NC(=O)CSc2ccc3nnc(-c4cccnc4)n3n2)cc1 — higher, 2.95%
- Cc1nnc2c(-c3ccccc3)nc3ccccc3n12 — higher, -2.02%
- Cc1ccc(O)c(NC(=O)COc2cc(C)ccc2C)c1 — higher, 0.625%
- CC(=O)OC/C=C(\C)CCC=C(C)C — higher, -0.25%
- CCOC(=O)C1=C(COC(=O)Cc2ccccc2F)NC(=O)NC1C (centres unmarked) — higher, 8.16%
- COc1ccc2[nH]c3c(c2c1)CCN=C3C — lower, -18.2%
- COC(=O)CCS(=O)(=O)c1nc(-c2ccccc2)cc(C(F)(F)F)n1 — lower, -13%
- O.O=C(O)c1cc(S(=O)(=O)O)ccc1O — higher, 16%
- COc1ccc(C(=O)NC2CCN(C(=S)Nc3cccc(C)c3)CC2)cc1 — lower, -8.21%
- COc1ccc(S(=O)(=O)Nc2ccc3cn[nH]c3c2)cc1C — higher, -3.24%
- COc1ccc(CCN2C(=O)CC(Cc3cccc(C)c3)C2=O)cc1OC (centres unmarked) — lower, -11.3%
- COc1ccc(CCNC(=O)c2cc(C3CC3)on2)cc1OC — higher, 13.9%
- Fc1cccc(Cl)c1CSc1ncn[nH]1 — lower, -18.4%
- CCOC(=O)C1CCN(c2cc3c(cc2NC(=O)c2ccccc2OCC)n(C)c(=O)n3C)CC1 — lower, -11.6%
- CC(=O)c1ccc(C#CC(C)(C)O)s1 — higher, 21.5%
- CCOc1ccc(NC(=O)c2nnn(CC(=O)Nc3ccccc3OC)c2N)cc1 — higher, 3.64%
- CCOC(=O)C(=CNc1cc(C)nn1-c1ccccc1)C(=O)OCC — lower, -27.4%
- COc1ccccc1N1CCN(/N=C/c2ccc(OC)c(OC)c2OC)CC1 — lower, -5.81%
- CN(C)CCNC(=O)COc1ccc(Cl)cc1Cl — lower, -18.2%
- Cc1cc(NCCCn2ccnc2)n2nc(C)c(-c3ccccc3)c2n1 — lower, -72.8%
- Cc1ccc(S(=O)(=O)Nc2ccc(C(=O)N3CCN(c4ccccc4O)CC3)cc2)cc1[N+](=O)[O-] — lower, -10.8%
- O=C(CSc1nnc(NC(=O)c2c(F)cccc2F)s1)NCc1ccccc1 — higher, 11.5%
- CCOc1ccc(NC(=S)Nc2ccccc2C2(C)CC2)cc1 — higher, 14.6%
- O=C(Cc1ccccc1Cl)Nc1cccc(S(=O)(=O)N2CCOCC2)c1 — lower, -8.22%
- Cn1nc(OC(=O)Nc2ccccc2)cc1C(F)(F)F — higher, 9.59%
- O=C(CNC(=O)c1cccs1)Nc1ccncc1 — higher, 8.67%
- Cl.O=C(C(c1ccccc1)c1ccccc1)N1CCN(CC(O)COc2ccccc2)CC1 (centres unmarked) — lower, -13.7%
- O=C(Nc1cc(Cl)cc(Cl)c1)c1cccnc1 — higher, -2.75%
- O=C(NCc1ccncc1)Nc1cc(Cl)ccc1Cl — lower, -8.6%
- COc1ccccc1-c1coc2cc(OCC(=O)OCc3ccccc3)ccc2c1=O — higher, 25%
- N/C(CC(=O)NC1CCCCC1)=N\OCC(=O)Nc1ccc(Cl)c(Cl)c1 — higher, 1.91%
- COc1ccc2c(c1)NC(c1ccc(N(C)C)cc1)c1cccn1-2 (centres unmarked) — higher, 12.5%
- COc1ccccc1NC(=O)CSc1nnc(-c2ccccc2)o1 — higher, -0.144%
- CSc1ccccc1NC(=O)CN(C)C(=O)Cc1c[nH]c2ccccc12 — higher, -0.585%
- COc1ccc(S(=O)(=O)NC2CC2)cc1Br — higher, 25.7%
- CC(C)NC(=S)N/N=C/c1cc(Br)ccc1O — higher, 17.5%
- COc1ccc(N(C(=O)c2snc(C(N)=O)c2N)C(C(=O)NCc2ccccc2)c2ccc(F)cc2)c(OC)c1 (centres unmarked) — higher, -0.146%
- O=C(c1ccc([N+](=O)[O-])cc1)N1CCc2ccccc2C1 — lower, -44.7%
- CCOc1ccc(/C=N/OCC(=O)Nc2ccc(OCc3ccccc3)cc2)cc1OC — higher, 6.71%
- O=C(CC1Oc2ccccc2NC1=O)NC1CC1 (centres unmarked) — higher, 5.67%
- NS(=O)(=O)c1ccc(CCNC(=O)CN2CCN(Cc3cccc4ccccc34)CC2)cc1 — higher, 5.29%
- O=[N+]([O-])c1c(NCCCO)cc(N2CCN(Cc3ccc4c(c3)OCO4)CC2)c2nonc12 — lower, -40.2%
- COc1ccc(NC(=O)C(=O)NCCN2CCN(C(=O)c3ccc(C)cc3)CC2)cc1 — lower, -75.4%
- CC(=O)Nc1ccc(Cl)c(-c2nc3ncccc3o2)c1 — higher, -2.77%
- Oc1c(CN2CCCCC2)cc(COCc2ccccc2)c2cccnc12 — lower, -5.83%
- Cc1ccc(C(=O)NCC(=O)NCCCc2ccccc2)s1 — higher, 1.14%
- Cc1ccc(/C=N/NC(=O)CN2CCN(S(=O)(=O)c3ccc(Br)cc3)CC2)s1 — lower, -58.9%
- Cn1c(CN2CCOCC2)nnc1SCc1ccccc1 — lower, -14.9%
- COc1ccccc1NC(=S)N(Cc1ccccc1)Cc1ccccn1 — lower, -13.4%
- CC(C)(C)C(=O)/C(=C/c1ccc(Cl)cc1)n1cncn1 — higher, 5.98%
- N#Cc1ccc(NC(=O)CN2CCN(c3ccccn3)CC2)cc1 — lower, -71.9%
- COc1ccc(CC(=O)NCC2CCCN(Cc3ccc(OC(F)(F)F)cc3)C2)cc1 (centres unmarked) — lower, -63.7%
- CCOCCCNC(=O)C(NC(=O)c1cnccn1)c1ccc(C)cc1 (centres unmarked) — higher, 30.4%
- CC(CN1CCOCC1)OC(=O)C(c1ccccc1)c1ccccc1 (centres unmarked) — lower, -9.65%
- CCN(CC(=O)Nc1ccccc1C(F)(F)F)C(=O)Cc1sc(C)nc1-c1ccc(F)cc1 — lower, -10.2%
- Cc1ccc(-c2cc(C(F)F)n3ncc(C(=O)N4CCN(c5ccccn5)CC4)c3n2)cc1 — lower, -9.65%
- COC(=O)C1=C(C)N(Cc2ccccc2)C(=O)/C1=C\c1ccco1 — higher, 2.06%
- COC(=O)c1sccc1-n1cccc1C(=O)C(=O)N1CCCC1 — higher, 14.3%
- CN(CC(=O)Nc1cccc(F)c1)C(=O)CSc1ccc(Br)cc1 — higher, 0.0875%
- CC(C)NC(=O)c1ccccc1NC(=O)c1ccccc1N(C)S(C)(=O)=O — higher, 5.13%
- CCCCc1ccc(NC(=O)C(C)CC)cc1 (centres unmarked) — lower, -50.5%
- O=C(COc1ccccc1F)Nc1c2c(nn1-c1ccccc1)CS(=O)(=O)C2 — lower, -35.7%
- Cc1ccc(CNS(=O)(=O)NCc2cccs2)cc1 — higher, 9.08%
- COc1cccc(C(=O)Nc2cccc(NC(=O)c3cccs3)c2)c1 — lower, -12.3%
- CN(C)c1ccc(C2/C(=C(/O)c3ccc(Br)cc3)C(=O)C(=O)N2C)cc1 (centres unmarked) — higher, 10.5%
- COc1cccc(CN2CCN(C(=O)c3cc(-c4ccccn4)nc4ccc(Cl)cc34)CC2)c1 — higher, 17.1%
- Cc1ccc(N2CCN(S(=O)(=O)c3c(C)noc3C)CC2C)cc1 (centres unmarked) — lower, -9%
- CCCCn1c(O)c(C(CC)=NCc2ccc(F)cc2)c(=O)[nH]c1=O — lower, -35.4%
- CC1Nc2ncnc(N3CCN(c4ccccc4)CC3)c2N(Cc2ccc(Br)cc2)C1=O.O=C(O)C(F)(F)F (centres unmarked) — lower, -5.35%
- CCn1c(C)c2c(C)nnc(C)c2c1C — higher, 11.3%
- CCCS(=O)(=O)c1nc(S(=O)(=O)c2ccc(C)cc2)c(N2CCN(CCO)CC2)s1 — higher, -3.1%
- CC(=O)c1c(C)[nH]c(C(=O)COC(=O)c2ccc(Cl)nc2)c1C — higher, 16.6%
- O=C(CCCn1nnnc1CN1CCOCC1)N1CCC(c2ccccc2Cl)C1 (centres unmarked) — higher, -1.19%
- CC(=O)N1CCc2cc(S(=O)(=O)NCCN3CCC(C)CC3)ccc21 — higher, 10.4%
- CCOC(=O)CNC(=O)CSc1nc2cccnc2n1C — higher, 7.54%
